In PubChem BioAssay AID1865 (National Center for Advancing Translational Sciences (NCATS), 2009):
Several values for one entry are separate records, joined by “and”; a condition that tells them apart may be missing. Identical values can stand only once. Among all 280,000 compounds or so, about 540 (0.19%) were called active. This list was built around the results that the source calls inconclusive (neither active nor inactive); the mix of calls is not that of the screen. Calls follow the shape of the dose curve; as a rule, active = well fitted activation curve with a large enough effect; inconclusive = small, poorly fitted or top-dose-only effect; inactive = flat fitted curve, though single readings scatter. A potency beside an inconclusive call is a rough fit, not a confirmed value.
Potency is read from the fitted curve at half-maximal effect; tags tell the direction and shape of the fitted curve.

Assay: Quantitative High-Throughput Screen for Regulators of Epigenetic Control; also: nearly all actives have a fitted effect of over 60% in size
Conditions: murine LDR cells, GFP reporter derepression, 30 h; series mostly up to 53.9 µM
Method in brief: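 Derepression of a silenced CMV-GFP reporter in murine LDR cells is scored by enumerating GFP-positive cells with a laser-scanning microplate cytometer after 30 hours of treatment at 37 C.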
For `Cc1ccccc1NC(=O)c1cc(-c2ccccc2)n(CCCN2CCOCC2)c1C`, the Potency was “inactive”. With `COC(=O)c1c(-c2ccc(Cl)cc2)noc1N1CCN(c2ccc(C(C)=O)cc2)CC1` the Potency was inconclusive: 20 µM [activator, single point]. In the case of `O=C(CNC(=O)c1cccs1)NCC(=O)OCC(=O)c1ccc([N+](=O)[O-])cc1`, the Potency is reported as inconclusive: 31.6 µM [activator, single point]. In the case of `O=C(c1ccc2c(c1)N(Cc1c(F)cccc1Cl)C(=O)c1ccccc1S2)N1CCC2(CC1)OCCO2`, the Potency is reported as “inactive”. In the case of `CCCCN1C(=O)NC(=O)C2(Cc3c(nc4c(C)cccn4c3=O)N3CCc4ccccc4C32)C1=O` (stereo unspecified), the Potency is reported as “inactive”. With `C[C@@H]1C[C@@H]([C@H](O)CC2CC(=O)NC(=O)C2)C(=O)[C@@H](C)C1` the Potency was inconclusive: 2.82 µM [activator, partial curve]. In the case of `COC(=O)c1ccc(NC2=C(Cl)C(=O)OC2OC(=O)c2ccccc2)cc1` (stereo unspecified), the Potency is reported as inconclusive: 35.5 µM [activator, single point]. With `CCOC(=O)c1[nH]c(C)c(C(=O)N2CCC3(CC2)OCCO3)c1C` the Potency was inconclusive: 25.1 µM [activator, single point]. In the case of `CCn1nc(-c2ccccc2)nc2c(=O)n(C)c(=O)nc1-2`, the Potency is reported as inconclusive: 35.5 µM [activator, single point]. For `CN(C(=O)Oc1ccc(Cl)c2cccnc12)c1ccccc1`, the Potency was “inactive”. In the case of `CN(C)c1ccc(/C=C2\CCCN=C2c2cccnc2)cc1`, the Potency is reported as inconclusive: 0.794 µM [activator, partial curve]. In the case of `Oc1c(Br)cc(Br)cc1Oc1ccc(Br)cc1Br`, the Potency is reported as “inactive”. With `C/C=C(/C)C(=O)O[C@H]1C(C)=C2[C@H]([C@@H]1OC(=O)CCCCCCC)[C@@](C)(OC(C)=O)C[C@H](OC(=O)CCC)[C@@]1(O)[C@H]2OC(=O)[C@@]1(C)O` the Potency was inconclusive: 89.1 nM [activator, full curve] and inconclusive: 7.94 µM [activator, partial curve, poor fit]. With `NS(=O)(=O)c1ccc(N=Nc2c(O)[nH]c(=S)[nH]c2=O)cc1` the Potency was inconclusive: 6.31 µM [activator, single point]. For `Cc1ccc(C(=O)C2C(=O)c3ccccc3C2=O)cc1`, the Potency was inconclusive: 35.5 µM [activator, single point]. In the case of `COC(=O)C(O)(c1ccc(NC(=S)NC(=O)c2ccc(Cl)cc2Cl)cc1)C(F)(F)F` (stereo unspecified), the Potency is reported as “inactive”. In the case of `O=c1oc2ccccc2c(O)c1[C@H]1c2ccc(O)cc2Oc2c1c(=O)oc1ccccc21`, the Potency is reported as inconclusive: 25.1 µM [activator, single point]. For `Cc1ccccc1OCC(=O)Nc1ccccc1C(=O)OCc1cc(=O)n2nc(C3CC3)sc2n1`, the Potency was inconclusive: 22.4 µM [activator, single point]. With `CC[C@@]1(O)CC(O)c2c(cc3c(c2O)C(=O)c2c(O)ccc(O)c2C3=O)C1C(=O)OC` (stereo partly specified) the Potency was inconclusive: 31.6 µM [activator, single point]. With `CCOc1ccc(-c2nc3ccc(-c4nc5ccc(N6CCN(C)CC6)cc5[nH]4)cc3[nH]2)cc1` the Potency was inconclusive: 6.31 µM [activator, single point]. In the case of `COc1ccc(OC)c(N=Cc2c(O)n(Cc3ccccc3)c(=S)[nH]c2=O)c1`, the Potency is reported as inconclusive: 35.5 µM [activator, single point]. In the case of `Nc1ccc2c(c1)Cc1cc([N+](=O)[O-])ccc1-2`, the Potency is reported as inconclusive: 15.8 µM [activator, single point]. For `CN(C)c1ccc(N=Cc2c(O)n(CCC3=CCCCC3)c(=O)[nH]c2=O)cc1`, the Potency was inconclusive: 31.6 µM [activator, single point]. For `Cc1nn(Cc2ccccc2)c(C)c1C(=O)OCC(=O)Nc1ccccc1SCC#N`, the Potency was inconclusive: 25.1 µM [activator, single point]. In the case of `CC(C)c1cc2c(c(O)c1O)[C@@]1(C(=O)O)CCCC(C)(C)[C@@H]1CC2`, the Potency is reported as inconclusive: 22.4 µM [activator, single point]. For `CN1CCc2nc(SCc3ccccc3Br)c(C#N)cc2C1`, the Potency was inconclusive: 31.6 µM [activator, single point]. For `Cc1ccc(C(c2nnnn2Cc2ccccc2)N2CC=C(c3ccc(F)cc3)CC2)cc1` (stereo unspecified), the Potency was inconclusive: 35.5 µM [activator, single point]. In the case of `Cc1oc(-c2ccccc2)nc1CN1C(=O)C(C)N=C(c2ccccc2F)c2cc(Cl)ccc21` (stereo unspecified), the Potency is reported as “inactive”. For `CCCN1CCc2cc(O)cc3c2C1Cc1ccc(O)c(O)c1-3` (stereo unspecified), the Potency was inconclusive: 28.2 µM [activator, single point]. For `N#CC(C#N)=Cc1ccc(O)c(O)c1`, the Potency was inconclusive: 25.1 µM [activator, single point]. For `C=CCSc1nc2c(c(-c3ccsc3)c1C#N)CN(C)CC2`, the Potency was inconclusive: 31.6 µM [activator, single point]. For `O=c1[nH]sc2cc(F)ccc12`, the Potency was inconclusive: 2.51 µM [activator, partial curve]. For `CCCCC[C@@H](/C=C/C=C\C/C=C\C/C=C\CCCC(=O)O)OO`, the Potency was “inactive”. In the case of `Nc1c(C(=O)NCc2ccco2)c2nc3ccccc3nc2n1CCN1CCCCC1`, the Potency is reported as “inactive”. For `Oc1cc2c(cc1O)[C@H]1c3ccccc3CN[C@H]1CC2`, the Potency was inconclusive: 31.6 µM [activator, single point]. With `CCn1c(NN=O)nc2ccccc21` the Potency was inconclusive: 25.1 µM [activator, single point]. With `O=C(CNC(=O)c1ccccc1)NCC(=O)OCC(=O)c1ccc([N+](=O)[O-])cc1` the Potency was inconclusive: 31.6 µM [activator, single point]. For `CN1/C(=C\C=C2C(=O)NC(=O)NC2=O)C(C)(C)c2ccccc21`, the Potency was inconclusive: 35.5 µM [activator, single point]. For `O=C(N/N=C/c1cc(Br)c(Br)s1)c1ccncc1`, the Potency was inconclusive: 14.1 µM [activator, single point]. In the case of `Cc1ccc(-n2nc3c(N4CCC(C(=O)NCCc5ccccc5)CC4)nnc(C)c3c2C)cc1`, the Potency is reported as inconclusive: 10 µM [activator, single point]. With `O=C1NC(=O)N(c2ccccc2)C(=O)/C1=C/c1coc2ccc(O)cc2c1=O` the Potency was “inactive”. For `O=[N+]([O-])c1ccc(-c2ccccc2)c([As](=O)(O)O)c1`, the Potency was inconclusive: 11.2 µM [activator, partial curve]. For `CC(Cc1ccccc1)NCc1ccccc1O` (stereo unspecified), the Potency was “inactive”. With `CC(C)CCNC(=O)c1c(N)n(Cc2ccc3c(c2)OCO3)c2nc3ccccc3nc12` the Potency was inconclusive: 14.1 µM [activator, partial curve]. For `O=C(COc1ccccc1)N1CCN(C2CCCC2)CC1`, the Potency was “inactive”. For `CCC(=NC1CCN(Cc2ccccc2)CC1)c1c(O)[nH]c(=O)[nH]c1=O`, the Potency was inconclusive: 4.47 µM [activator, single point]. For `CN1CCN(c2ccccc2N)CC1`, the Potency was “inactive”. With `O=C(O)CP(=O)(O)c1ccc(Cl)cc1` the Potency was inconclusive: 6.31 µM [activator, single point]. With `C[Se]C[C@H](N)C(=O)O` the Potency was inconclusive: 6.31 µM [activator, single point]. With `CC1=CC(=Cc2sc3ccccc3[n+]2C)C=C(C)O1` the Potency was active: 11.2 µM. In the case of `O=C(/C=C/c1c[nH]c2ccccc12)c1c(O)n(CCc2ccccc2)c(=O)[nH]c1=O`, the Potency is reported as inconclusive: 20 µM [activator, single point]. With `CCC(C)C1N=C(c2ccccc2)c2cc(Cl)ccc2N(CC(=O)NCc2ccco2)C1=O` (stereo unspecified) the Potency was “inactive”. With `CC1(C)CC(=O)C=C(NCCN2CCN(C(=O)Cc3ccc(Cl)cc3)CC2)C1` the Potency was inconclusive: 6.31 µM [activator, single point]. With `CCN1C(=O)/C(=C\c2ccc([N+](=O)[O-])s2)C(=O)NC1=S` the Potency was inconclusive: 10 µM [activator, partial curve]. For `CC(C)c1cccc(O)c(=O)c1`, the Potency was “inactive and inconclusive: 28.2 µM [activator, single point] and inconclusive: 35.5 µM [activator, single point]”. With `Cn1cc(C=C(C#N)C#N)c2ccccc21` the Potency was inconclusive: 25.1 µM [activator, single point]. With `C[C@@H]1CC([C@H](O)CC2CC(=O)NC(=O)C2)C(=O)[C@@H](C)C1` (stereo partly specified) the Potency was inconclusive: 0.447 µM [activator, partial curve, poor fit]. For `NC(CP(=O)(O)O)C(=O)O` (stereo unspecified), the Potency was “inactive”. In the case of `CCc1ccc(-n2c(=O)c3sc4ccccc4c3n(CC(=O)NC3CCCC3)c2=O)cc1`, the Potency is reported as inconclusive: 35.5 µM [activator, single point]. With `CCC(=Nc1ccc2c(c1)CCC2)c1c(O)n(C2CCCCC2)c(=O)[nH]c1=O` the Potency was “inactive”. In the case of `Cc1nc(CCl)cc(=O)[nH]1`, the Potency is reported as inconclusive: 35.5 µM [activator, single point]. For `CCCCn1c(O)c(C(=O)/C=C/c2c[nH]c3ccccc23)c(=O)[nH]c1=O`, the Potency was inconclusive: 5.62 µM [activator, single point]. For `Cc1ccc(N2C(=O)NC(=O)/C(=C\c3ccc(N4CCOCC4)cc3)C2=O)cc1`, the Potency was “inactive”. For `Cc1cc(/C=C2\C(=O)NC(=S)N(C)C2=O)c(C)n1C1CCCCC1`, the Potency was inconclusive: 31.6 µM [activator, single point]. With `N#C/C(=C\c1ccc([N+](=O)[O-])cc1)c1nc(C2CC2)cs1` the Potency was inconclusive: 35.5 µM [activator, single point]. In the case of `CCOC(=O)c1cc(CC)sc1/N=C/c1c(O)[nH]c(=S)[nH]c1=O`, the Potency is reported as “inactive”.
